Reference: the CheMixHub viscosity set
“And” between values parts separate entries of the source, which are not always exact repeats. Equal values may be shown once. ± gives the uncertainty stated by the source. This continues a long series; more values of the same kind are listed elsewhere.

Assay: xn = mol fraction of the nth substance listed

CN(C)C=O + O
viscosity
Conditions | 308.15 K | 313.15 K
101 kPa, x1 = 0.03 | 0.8484 ± 0.009 mPa·s | –
101 kPa, x1 = 0.05 | 1.035 ± 0.011 mPa·s | –
101 kPa, x1 = 0.0503 | 1.068 ± 0.009 mPa·s | 0.9556 ± 0.0083 mPa·s
101 kPa, x1 = 0.06 | 1.029 ± 0.012 mPa·s | –
101 kPa, x1 = 0.0699 | 1.196 ± 0.0096 mPa·s | 1.07 ± 0.0088 mPa·s
101 kPa, x1 = 0.1 | 1.326 ± 0.015 mPa·s and 1.248 ± 0.016 mPa·s and 1.49 ± 0.022 mPa·s | –
101 kPa, x1 = 0.1006 | 1.38 ± 0.011 mPa·s | 1.226 ± 0.0097 mPa·s
101 kPa, x1 = 0.1202 | 1.482 ± 0.011 mPa·s | 1.311 ± 0.01 mPa·s
101 kPa, x1 = 0.1498 | 1.627 ± 0.012 mPa·s | 1.435 ± 0.011 mPa·s
101 kPa, x1 = 0.15 | 1.593 ± 0.02 mPa·s | –
101 kPa, x1 = 0.1571 | 1.637 ± 0.014 mPa·s | –
101 kPa, x1 = 0.1698 | 1.706 ± 0.012 mPa·s | 1.501 ± 0.011 mPa·s
101 kPa, x1 = 0.2 | 1.759 ± 0.023 mPa·s | –
101 kPa, x1 = 0.2002 | 1.801 ± 0.013 mPa·s | 1.581 ± 0.011 mPa·s
101 kPa, x1 = 0.22 | 1.846 ± 0.013 mPa·s | 1.62 ± 0.012 mPa·s
101 kPa, x1 = 0.25 | 1.849 ± 0.026 mPa·s | –
101 kPa, x1 = 0.2504 | 1.892 ± 0.013 mPa·s | –
101 kPa, x1 = 0.2608 | – | 1.753 ± 0.29 mPa·s
101 kPa, x1 = 0.2699 | 1.856 ± 0.015 mPa·s | –
101 kPa, x1 = 0.2702 | 1.906 ± 0.013 mPa·s | 1.672 ± 0.012 mPa·s
101 kPa, x1 = 0.2921 | – | 1.766 ± 0.29 mPa·s
101 kPa, x1 = 0.3 | 1.858 ± 0.027 mPa·s and 1.796 ± 0.035 mPa·s | –
101 kPa, x1 = 0.3001 | 1.905 ± 0.013 mPa·s | 1.673 ± 0.012 mPa·s
101 kPa, x1 = 0.304 | – | 1.777 ± 0.29 mPa·s
101 kPa, x1 = 0.3199 | – | 1.755 ± 0.29 mPa·s
101 kPa, x1 = 0.3202 | 1.891 ± 0.013 mPa·s | –
101 kPa, x1 = 0.3499 | 1.857 ± 0.013 mPa·s | 1.637 ± 0.012 mPa·s
101 kPa, x1 = 0.35 | 1.797 ± 0.027 mPa·s | –
101 kPa, x1 = 0.3544 | – | 1.734 ± 0.29 mPa·s
101 kPa, x1 = 0.4 | 1.712 ± 0.027 mPa·s | –
101 kPa, x1 = 0.4003 | 1.761 ± 0.013 mPa·s | –
101 kPa, x1 = 0.4137 | – | 1.595 ± 0.27 mPa·s
101 kPa, x1 = 0.425 | 1.63 ± 0.014 mPa·s | –
101 kPa, x1 = 0.4503 | 1.643 ± 0.012 mPa·s | 1.465 ± 0.011 mPa·s
101 kPa, x1 = 0.4848 | – | 1.452 ± 0.26 mPa·s
101 kPa, x1 = 0.5 | 1.469 ± 0.026 mPa·s and 1.518 ± 0.011 mPa·s and 1.436 ± 0.032 mPa·s | –
101 kPa, x1 = 0.5461 | 1.417 ± 0.012 mPa·s | –
101 kPa, x1 = 0.6 | 1.232 ± 0.024 mPa·s | –
101 kPa, x1 = 0.6002 | 1.275 ± 0.0098 mPa·s | –
101 kPa, x1 = 0.6644 | 1.153 ± 0.0097 mPa·s | –
101 kPa, x1 = 0.7 | 1.042 ± 0.022 mPa·s | –
101 kPa, x1 = 0.8 | 0.8918 ± 0.02 mPa·s and 0.9286 ± 0.0079 mPa·s | –
101 kPa, x1 = 0.8501 | 0.8884 ± 0.0076 mPa·s | –
101 kPa, x1 = 0.9 | 0.7828 ± 0.019 mPa·s and 0.8362 ± 0.0074 mPa·s | –
101.33 kPa, x1 = 0.099 | 1.335 ± 0.01 mPa·s | –
101.33 kPa, x1 = 0.2009 | 1.753 ± 0.013 mPa·s | –
101.33 kPa, x1 = 0.3008 | 1.847 ± 0.014 mPa·s | –
101.33 kPa, x1 = 0.3995 | 1.708 ± 0.013 mPa·s | –
101.33 kPa, x1 = 0.5005 | 1.454 ± 0.011 mPa·s | –
101.33 kPa, x1 = 0.5999 | 1.229 ± 0.0097 mPa·s | –
101.33 kPa, x1 = 0.6997 | 1.035 ± 0.0083 mPa·s | –
101.33 kPa, x1 = 0.7998 | 0.8956 ± 0.0073 mPa·s | –
101.33 kPa, x1 = 0.9 | 0.7894 ± 0.0066 mPa·s | –
